The text below walks through data of the supplement of paper PMC11417369.

± gives the standard deviation of the averaged measurements. The list shows a part of the results.

In this test the test system is PfAP2-LT AP2 domain (GST-tagged). The test can be described thus: gcPBM binding intensity (ln(normalized median fluorescence intensity)); higher = stronger DNA binding. The method in brief:
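For binding intensity, the highest Masliner-normalised natural-log median intensity across replicate spots of either probe orientation was taken. Protein bound to the array was stained with Alexa488 anti-GST antibody and scanned at 488 nm. The protein, GST-tagged P. falciparum DNA-binding domains from E. coli at about 25 μg on average, had been applied for 1 h to an Agilent 4 × 180k array of primer-extended double-stranded 36-bp intergenic genomic probes and negative controls.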
Turning to “ATAAAATAAAAATTCTGTACAGAATTAAAAAAATAT [XGTACX_site6961]”, the “gcPBM binding intensity (ln)” value was determined as 8.79 ± 0.47.

On to “TATTCATGCATATACACACACATATATATATATTTT [CACACA_site3955]”, for which the “gcPBM binding intensity (ln)” value was 9.36 ± 0.22.

With “AAAAAAAAATTAAACATACACACGTTACTATTTTTA [CACACA_site1687]”, the “gcPBM binding intensity (ln)” value stood at 8.72 ± 0.51.

Take “AATGAAAAATTGTAATGTACATAAATAAATAAATAA [XGTACX_site4048]”: the “gcPBM binding intensity (ln)” value came out at 9.05 ± 0.52.

As to “ATCATAATTTATTATACACACAATACGTGACCTATT [CACACA_site6977]”, the “gcPBM binding intensity (ln)” value is 9.24 ± 0.47.

In the case of “TTTTATATAAATATCACACACACACGCATGTTTTAA [CACACA_site6187]”, the “gcPBM binding intensity (ln)” value was found to be 9.52 ± 0.27.

In the case of “TACAATATACCTACTTGTACACAAAATAAAAGTAGT [XGTACX_site6029]”, the “gcPBM binding intensity (ln)” value worked out at 8.89 ± 0.38.

Turning to “TACACACCTAACTATGCATGCATCAATATAGTGGAT [TGCATGCA_site443]”, the “gcPBM binding intensity (ln)” value was 9.15 ± 0.18.

For the sequence “TTTTTTTATATTATACGCACTAATATATATATATAT [XGTACX_negctrl_site40]”, the “gcPBM binding intensity (ln)” value was found to be 8.79 ± 0.49.

On to “AAATAGACATAAAAAGGTACACAAATTGTGTATTAA [XGTACX_site527]”, for which the “gcPBM binding intensity (ln)” value turned out to be 9.04 ± 0.57.

As for “TAACACTTTTTTTTTCGTACATATATTATATATATA [XGTACX_site5470]”, the “gcPBM binding intensity (ln)” value was 8.69 ± 0.45.

For “TTTAATTTTCCCTTCACACATAATATATATCTGTAT [CACACA_site5370]”, the “gcPBM binding intensity (ln)” value came to 8.84 ± 0.56.

With “CGTTTGGTACACGTAGTGTTTTCGTTTGAATGTACC [GTGCAC_negctrl_site201]”, the “gcPBM binding intensity (ln)” value was determined as 9.02 ± 0.44.

“TTTAATCAATGATTTAATGAAAAAAGCAAAAAAAAA [GTGCAC_negctrl_site213]”: the “gcPBM binding intensity (ln)” value stood at 8.26 ± 0.55.

In the case of “GACATATATAGCAATCGTACATATATTATAAAAGGT [XGTACX_site6891]”, the “gcPBM binding intensity (ln)” value is 9.24 ± 0.42.

On to “AAAAGGAACAGACACACACACATATATAAATATGTA [CACACA_site7656]”, for which the “gcPBM binding intensity (ln)” value stood at 9.8 ± 0.42.

For “TATTAATTTATTTGTTGTACGTAAATATGCTTGTTT [XGTACX_site6591]”, the “gcPBM binding intensity (ln)” value was 8.87 ± 0.6.

Take “AAAAAAAAAAAAAATTGTACCCAAATATTTTTGTAG [XGTACX_site8303]”: the “gcPBM binding intensity (ln)” value worked out at 8.38 ± 0.49.

For ATATATATATTTAAGGTGCGATTTTGTTATATTTAA, the “gcPBM binding intensity (ln)” value was determined as 8.76 ± 0.36.

Regarding “TTTTTATTAGGACATGCATACAAAATTAAAAAAAAT [TGCATGCA_site258]”, the “gcPBM binding intensity (ln)” value amounted to 8.54 ± 0.37.

For the sequence “GTATATAATTTATGTGCACACACTCCTATTTTTAGC [CACACA_site49]”, the “gcPBM binding intensity (ln)” value stood at 9.44 ± 0.38.

Take “AATTATATTAATATATAATAAAATAGGATGTTATTT [XGTACX_negctrl_site309]”: the “gcPBM binding intensity (ln)” value was determined as 8.44 ± 0.49.

Consider “TTATGTATATTATAAATTAATACATTTAAATTAATA [CACACA_negctrl_site34]”, for which the “gcPBM binding intensity (ln)” value stood at 8.04 ± 0.41.

As to “TTATTAAAATATTAAAGTACAAAAAAAATAAATAAA [XGTACX_site6507]”, the “gcPBM binding intensity (ln)” value came out at 8.53 ± 0.45.

As to “CTTATTTTATGTTATACACACAAAGAAAAAAAATAA [CACACA_site2165]”, the “gcPBM binding intensity (ln)” value turned out to be 8.62 ± 0.42.

Take “AAAAATTAGAAACACACACACATATATATATATATT [CACACA_site1042]”: the “gcPBM binding intensity (ln)” value was 9.66 ± 0.42.

As to “TCAAATGTATATAATTGTACTTATCCTTTTCATTTT [XGTACX_site4879]”, the “gcPBM binding intensity (ln)” value was found to be 8.8 ± 0.49.

Take “TTTTAAGTTTTTGAATGTACGTAATTTGTAAATTCT [XGTACX_site2448]”: the “gcPBM binding intensity (ln)” value is 8.49 ± 0.47.

Turning to “TATAAAATACTGTATCGATGGGGGAGGGCGCAGGGG [TGCATGCA_negctrl_site250]”, the “gcPBM binding intensity (ln)” value came out at 10.4 ± 0.16.

Regarding “AAAAAAAAAAAAAAAAAAAAAAAAAAAGATTATGAG [CACACA_negctrl_site1088]”, the “gcPBM binding intensity (ln)” value was determined as 8.64 ± 0.23.

As for “AAGAACAAACAAAATAGTACAATATATATATATATA [XGTACX_site4258]”, the “gcPBM binding intensity (ln)” value worked out at 9.58 ± 0.41.

For “TTTAAATATTTTATAGCATGCTACCAATATGTATAT [TGCATGCA_site291]”, the “gcPBM binding intensity (ln)” value is 8.83 ± 0.52.

On to “CATATATAGATATATACACACATATAGATTTTCTTT [CACACA_site6797]”, for which the “gcPBM binding intensity (ln)” value was determined as 8.92 ± 0.38.

“TATTCATAACAATGATGTACATATATTTTTTTTTTC [XGTACX_site5619]”: the “gcPBM binding intensity (ln)” value was found to be 8.63 ± 0.42.

With “AACTATAATTAAAGGATGCACTTGAAGGCATTTCAA [GTGCAC_site9689]”, the “gcPBM binding intensity (ln)” value stood at 8.7 ± 0.48.

As to “TTACTTGTTTATTTTTTTTTTTTTTTTTTTTTTGTT [TGCATGCA_negctrl_site103]”, the “gcPBM binding intensity (ln)” value amounted to 8.41 ± 0.73.

As to “TAATGGAGAAAATAATGTACTTAGATATTTGTTCTA [XGTACX_site6312]”, the “gcPBM binding intensity (ln)” value amounted to 8.44 ± 0.42.

On to “CAATGTATTTAGAATACATGCATATTTTCATAATGT [TGCATGCA_site221]”, for which the “gcPBM binding intensity (ln)” value came out at 8.6 ± 0.45.

“AATTATGCACAAATCACACATATAAAATAAAAAGTG [CACACA_site4474]”: the “gcPBM binding intensity (ln)” value worked out at 9.06 ± 0.37.

Regarding “AAATATTTATATGTTACACACTGTTTATAATTTTCT [CACACA_site4868]”, the “gcPBM binding intensity (ln)” value was determined as 8.86 ± 0.39.

For “ACAAAAATGAGATGGTGTACGCACAAATAAATAATA [XGTACX_site5221]”, the “gcPBM binding intensity (ln)” value was found to be 9.31 ± 0.53.

In the case of “ATATAGTTTCACATGTGTACATAAAAATACACTTGT [XGTACX_site3339]”, the “gcPBM binding intensity (ln)” value was 8.85 ± 0.4.

Turning to “TTTAATTTATATAATGATATTAAGTTGGTTATTAGG [CACACA_negctrl_site329]”, the “gcPBM binding intensity (ln)” value amounted to 8.45 ± 0.48.

Turning to “CAAAATGTTAAAGATACACACCTAACAAACACAAAA [CACACA_site4685]”, the “gcPBM binding intensity (ln)” value is 9.19 ± 0.5.

On to “AATTCTTTACTATTCACACATATAAATATTCACTTT [CACACA_site4886]”, for which the “gcPBM binding intensity (ln)” value was 8.85 ± 0.42.

As to “AAATCCATATAGGATTGTACATATATTATATATATA [XGTACX_site8818]”, the “gcPBM binding intensity (ln)” value was determined as 8.79 ± 0.39.

As for “AAAAATATTTAAAATACACACATATCTATAATATAT [CACACA_site7032]”, the “gcPBM binding intensity (ln)” value is 8.8 ± 0.33.

Turning to “GTGGTATAAATTTTATGTACTTAATAACTCATTAAT [XGTACX_site5555]”, the “gcPBM binding intensity (ln)” value was determined as 8.73 ± 0.43.

Take “ACATATATATTTATATGTACATATATTTATATATAT [XGTACX_site7469]”: the “gcPBM binding intensity (ln)” value amounted to 8.93 ± 0.46.

On to “TACTTACCTATAATAACACACAAGAAAAAAATAAAA [CACACA_site6616]”, for which the “gcPBM binding intensity (ln)” value turned out to be 8.82 ± 0.49.

For “AAATAATATCATAAATGTACATATATCATATTATTA [XGTACX_site5372]”, the “gcPBM binding intensity (ln)” value worked out at 8.62 ± 0.36.

For the sequence “CATCCAAAAATATTATGTACTAAATTTGGATGTATT [XGTACX_site3954]”, the “gcPBM binding intensity (ln)” value turned out to be 8.7 ± 0.4.

Regarding “TATAAAATTATGTGTACACAAATATAACTTTTCTTT [CACACA_site5554]”, the “gcPBM binding intensity (ln)” value stood at 8.71 ± 0.51.

Turning to “AAAATATTTCTTCTTTGTACTTATATATATTTAATT [XGTACX_site5446]”, the “gcPBM binding intensity (ln)” value came to 8.71 ± 0.38.

Take “TATTCATATTCCAAGTGTACACATAAATCCCTAATA [XGTACX_site4131]”: the “gcPBM binding intensity (ln)” value is 8.63 ± 0.39.

In the case of “TTAATAATTATAACATGTACATACACTAAATTTTTT [XGTACX_site8953]”, the “gcPBM binding intensity (ln)” value was determined as 8.65 ± 0.51.
